Results published in PubChem BioAssay AID686979 (National Center for Advancing Translational Sciences (NCATS), 2013).
In all, about 420,000 compounds went through this assay and about 50,000 (12%) were called active. Inconclusive results, whose numbers are uncertain, are shown with a selection of clear calls. Calls follow the shape of the dose curve; as a rule, active = well fitted inhibition curve with a large enough effect; inconclusive = small, poorly fitted or top-dose-only effect; inactive = flat fitted curve, though single readings scatter. No potency is given beside an inconclusive call; the fits are too rough.
% is scaled to controls: 0 for no effect and ±100 for the full control effect; potency is read from the fitted curve at half-maximal effect; tags tell the direction and shape of the fitted curve.

Test: qHTS for Inhibitors of human tyrosyl-DNA phosphodiesterase 1 (TDP1): qHTS in cells in presence of CPT; also: nearly all actives have a fitted effect of over 55% in size
Details: chicken DT40 Tdp1-/-;hTDP1 cells + 20 nM CPT, ATP luminescence, 48 h; activity change, negative = growth inhibition: at 46.2 µM (top of the series) unless noted
In short: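 Chicken DT40 Tdp1-/- cells stably complemented with human TDP1 were seeded at 400 cells/well in medium containing 20 nM camptothecin, exposed to pin-transferred compounds, and grown at 37 °C for at least 48 hr. Viability was read as ATP luminescence.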
In the case of C=CCNc1nc(NCc2ccccc2)c(C#N)c2c1CN(C)CC2, the Potency is reported as active: 18.4 µM. With C/C=C/C=N/Nc1nc(C)cc(=O)[nH]1 the Potency was “inactive”. In the case of CCCNC(=O)CCn1cc(-c2ccc(OC)cc2)nc1CCN, the Potency is reported as “inactive”. In the case of CCN(CC(=O)NCc1cccs1)C(=O)CCC(=O)c1ccc(C)cc1, the Potency is reported as “inactive”. With Cc1cc(NC(=O)CSc2nnc(-c3ccncc3)n2Cc2ccccc2)n(-c2ccccc2)n1 the Potency was inconclusive [inhibitor, single point]. With CCCN(CCC)C(=O)C1CCN(c2cc(C)nc3c(-c4ccc(OC)c(OC)c4)c(C)nn23)CC1 the Potency was active: 18.4 µM. With CCCc1cnc(N2CCN(C(=O)c3c(-c4ccccc4)noc3C)CC2)nc1 the Potency was inconclusive [inhibitor, single point]. In the case of Cc1c(C(=O)NCc2ccoc2)oc2ccc3c(c12)C(=O)CC(C)(C)O3, the Potency is reported as active: 14.6 µM. For CCOc1ccc(CN2CCNC(=O)C2CC(=O)N(C)Cc2nonc2C)cc1 (stereo unspecified), the Potency was “inactive”. In the case of COc1ccc(C(C)=O)cc1CSc1nnc(Nc2ccc(C)cc2)s1, the Potency is reported as inconclusive [inhibitor, single point]. For CC(C)(C)c1ccc(OCC(=O)N/N=C/c2cc(Br)ccc2OC(=O)c2ccco2)cc1, the Potency was active: 4.61 µM. In the case of CSc1nc(C(=O)N2CCCC(Nc3ccc(C)c(C)c3)C2)cs1 (stereo unspecified), the Potency is reported as inconclusive [inhibitor, single point]. For O=C(OCCc1cc2ccccc2c(=O)o1)c1cccs1, the Potency was inconclusive [inhibitor, single point]. With O=C(Nc1ccccc1C(F)(F)F)c1cc(-c2ccc(O)cc2)on1 the Potency was inconclusive [inhibitor, single point]. In the case of COc1ccccc1N1CCN(C(=O)c2ccccc2SCC(=O)NCc2ccco2)CC1, the Potency is reported as inconclusive [inhibitor, single point]. In the case of COc1cc(CNCCSc2nnnn2C)ccc1OCc1ccc(F)cc1, the Potency is reported as active: 18.4 µM. With Cc1ccc(CN2C(=O)CCC2C(=O)NCCCN2CCCC(C)C2)cc1 (stereo unspecified) the Potency was “inactive”. With CCOC(=O)c1[nH]c(C)c(CCC(=O)Nc2cccc(C(F)(F)F)c2)c1C the Potency was inconclusive [inhibitor, single point]. For Cc1ccccc1SCC(=O)N1CCN(c2ccc(C(F)(F)F)cn2)CC1, the activity change, negative = growth inhibition was inconclusive: -31.5% [inhibitor]. In the case of CCC/C(=N\NC(=O)c1ccco1)c1ccc(Cl)s1, the Potency is reported as “inactive”. In the case of O=S(=O)(c1ccccc1)N1CCC[C@@]2(CCN(Cc3cc(C(F)(F)F)cc(C(F)(F)F)c3)C2)C1, the Potency is reported as inconclusive [inhibitor, single point].
